# Assay results taken from the supplement of paper PMC11417369.
# Some of the results follow.
# Tested on: PfHDP1 homeodomain (GST-tagged)
# Assay: gcPBM binding intensity (ln(normalized median fluorescence intensity)); higher = stronger DNA binding
# How it was run: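 Binding intensity is defined as the maximum Masliner-normalised natural-log median intensity across replicate spots for either probe orientation. It was measured on an Agilent 4 × 180k array of primer-extended double-stranded 36-bp intergenic genomic probes and negative controls, to which GST-tagged P. falciparum DNA-binding domains made in E. coli were applied for 1 h in 1× PBS with 1% milk, 0.2 mg/ml BSA, 0.5% salmon testes DNA and 0.03% Triton X-100. Detection was by Alexa488 anti-GST antibody and scanning at 488 nm.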
row,Sequence,gcPBM binding intensity (ln)
1,TGATTATATAAAAAAAAGAAAAAAAAAAAAAAAAAA [CACACA_negctrl_site819],5.77
2,ATAATTCATGTTTAGTGTACAAAAAATTAAAGCAAC [XGTACX_site8891],7.25
3,TATATATATATAATATGTACATATATATATTCTTAA [XGTACX_site6154],8.78
4,AAATAATTTATATGTAGTACATGTTGTAGATAATTT [XGTACX_site1031],6.67
5,ATCTTTATTTTTAGCGCACACATAAAATAATAATAA [CACACA_site3458],7.63
6,CAAAGCATTTTATCTACACACATATATAAATAAATA [CACACA_site7500],6.3
7,TTTTTTTTTTTATGTGCACACAAAAGATGCTTATAT [CACACA_site2347],10.7
8,TGATGCAAGATATATACACACATATAAATATAAATA [CACACA_site7429],6.81
9,TATTTTAACTTTTTTTCCTTTATTCATTTTTTTTTC [CACACA_negctrl_site971],6.27
10,TTATGATAACTTTGCACACACTTAGGAAAAGTTATG [CACACA_site6836],10.6
11,TAAAGGTGTAAAACTGCATGCTGGAGAAAAGTAAAA [TGCATGCA_site591],7.13
12,AATAATACGTTAAATGTTCTTACAAGTTGGTTTCAT [CACACA_negctrl_site1029],6.33
13,AAAAAAAAAAAAAAGTGTACCTTATTATACTTTAAT [XGTACX_site8439],6.29
14,ATTATATAATATAATGCATGTGTTAATGAAAAATCT [TGCATGCA_site426],6.6
15,AAAAAAAAATTTGTATCACACACGTATTATAAAAAA [CACACA_site6],6.28
16,AAATATATATATATATGTACACACACACATATAAAT [XGTACX_site847],6.82
17,CACACTAAAAGACACACACACACACGCATATAAATA [CACACA_site7874],6.75
18,ATTAAACATACATATACACACACACCCACCCACCCA [CACACA_site8057],7.24
19,TAGTGTAAAAAATACGCATGTGTACAAATATAATAA [TGCATGCA_site498],6.94

row,Sequence,gcPBM binding intensity (ln)
1,TTGTAGGAATTTATTTTGACTGATAATTAATACGTT [GTGCAC_negctrl_site46],5.75
2,GATATAGATATTAATTGTACATATTATTTATTGTTA [XGTACX_site846],6.44
3,TTCTAAAAAGGGTGTACACAAACGAATGGAAAATAA [CACACA_site5483],7.57
4,GATATGTACTAATACACACACATATATATATATATA [CACACA_site1022],9.41
5,ATAATTTTTATTTGTACACACATACAGATATATTAT [CACACA_site4701],6.53
6,AAGAATCACCAAATATGTACACACCTTAACATGTTT [XGTACX_site4272],6.96
7,CCACTGTATGAATGCACACATTCATAGAATTGCTAT [CACACA_site2676],9.51
8,TAATAAGGTTACAACAAACACACAAAGGAATATACA [CACACA_site4089],7.11
9,TAATTTGTTAAAGGTTCACATATGGTATATACTTCT [XGTACX_negctrl_site292],6.33
10,GATATGATTAACTTATGTTATTCTTGATGGTTTCTT [GTGCAC_negctrl_site411],6.02
11,TTATAAAACCATGTCATCAACATAGGCACAAAAATG [CACACA_negctrl_site1160],6.52
12,TATCACAAAATATACTGTACATACAGGCAGTAATAT [XGTACX_site2487],6.36
13,TAACTTCAAACAAAATATGGTAAAAGTGGTTGAAAA [CACACA_negctrl_site42],6.42
14,AAAATACCCGGACACACACACATATATATATATATT [CACACA_site6137],6.9
15,GATGATTCAATTTATGCACACTAAAAATTAATTATA [CACACA_site4308],10.1
16,CCATAGATATTTTATACACACATATAATATATTAAT [CACACA_site373],6.72
17,ATAATCTGACAAATGTGTACACATATATATATATAT [XGTACX_site2379],9.28
18,AAATAATATATTCCTTGTACTTATTTCAATGAATTC [XGTACX_site7719],6.33
19,ACCAAAAGGGGATGTAGTACAATATGATTAGAAGAA [XGTACX_site3773],7.11

row,Sequence,gcPBM binding intensity (ln)
1,TATGTATAGATATATACACACTTCTGTGATACGAAA [CACACA_site7003],6.51
2,TAAAGAGTCATGTGGTGTACCTGCTTCACCACATAT [XGTACX_site1288],5.79
3,TTATTTTTAATATCGGTGCAACAAAAAGGAAAAGAT [GTGCAC_site9482],9.29
4,TATATATTCATAAAGTGTACATGTTTATATATATAT [XGTACX_site7585],8.53
5,ATATGTACATATCTCATGCACTTAACAAAAAAAAAG [GTGCAC_site9898],8.01
6,ACAATACAAATATATACACACATACATACATACATA [CACACA_site5699],7.03
7,TTAATATTTACAAAATGTACAGATTATTTATTGTTG [XGTACX_site1270],6.03
8,TTTTTTAATATTTATACATGCATGCCGATTACTATA [TGCATGCA_site26],6.67
9,AATAATTATAATAAGGGTACGTATCTCACAGGAAAA [XGTACX_site4187],6.72
10,AAATATGTCAAATATACACACATAATAACTAGAATA [CACACA_site7151],6.6
11,TATTTATTAAAACACACACACACACCGACAAAATAA [CACACA_site4293],7.2
12,TTAATTTGTAAATAATGTACATATAAATGGAAAGTA [XGTACX_site2743],7.35
13,TAATAAAACATATATACACACATTATGTATACATAT [CACACA_site1703],6.63
14,AAATGTTGAAATGATACACACATATAAATATAAATA [CACACA_site7229],6.47
15,CCCTGAGCACTTTCGTGTACTAATAGTAACAATAAT [XGTACX_site1418],7.38
16,AATAATAAACACAATCAAATAAAATATGAAATATAA [GTGCAC_negctrl_site307],6.16
17,AAACAAATGTATATGTGTACTTATTTTTTTGTATGT [XGTACX_site7134],6.17
18,TATATATATTTAAAAAGTACAAAAAAAAAAAATGAA [XGTACX_site374],6.52
